Source: PubChem BioAssay AID686978 (National Center for Advancing Translational Sciences (NCATS), 2013)
Hit rate of the full screen: of about 420,000 compounds, about 64,000 (15%) were called active. The shares of active, inactive and inconclusive entries below differ from those in the screen. The call rests on the fitted dose curve; in most records, active means well fitted inhibition curve with a large enough effect; inconclusive means small, poorly fitted or top-dose-only effect; inactive means flat fitted curve, though single readings scatter. No potency is given beside an inconclusive call; the fits are too rough.
On the % scale 0 is the no-effect control and ±100 the full control effect; potency means the concentration at half of the fitted maximal effect; tags describe the fitted curve by direction and shape.

Experiment: qHTS for Inhibitors of human tyrosyl-DNA phosphodiesterase 1 (TDP1): qHTS in cells in absence of CPT; further: nearly all actives have a fitted effect of over 55% in size
Conditions: DT40 Tdp1-/- hTDP1 cells, no CPT, ATP luminescence, 48 h; activity change, negative = growth inhibition: at 46.2 µM (top of the series) unless noted
Summary of the method: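 Seeded 400 DT40-hTDP1 cells/well (vehicle DMSO, no 20 nM CPT); pinned compounds; ≥48 hr at 37 °C; CellTiter-Glo luminescence as viability measure.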
With `Cc1cccc(OCC(=O)Nc2ccc(-c3nc4cc(C)ccc4o3)c(O)c2)c1` the Potency was inconclusive [inhibitor, full curve].
With `Cc1nc(C(=O)Nc2ccc(F)cc2)nn1-c1ccc([N+](=O)[O-])cc1` the Potency was “inactive”.
With `O=C(Nc1nc2c(F)cc(F)cc2s1)c1ccco1` the Potency was “inactive”.
With `Cn1ncc2cc3c(Nc4ccc(Cl)cc4)cccc3nc21` the Potency was active: 11.6 µM.
For `CCCN(CCC)c1cc(Cl)nc(N)n1`, the Potency was “inactive”.
For `COc1cc2c(cc1OC)CN(C(=O)CCC(=O)c1ccc(F)cc1)CC2`, the Potency was active: 11.6 µM.
In the case of `COc1ccc(S(=O)(=O)N(CC(=O)N(C)Cc2ccccc2)c2ccc(Cl)cc2)cc1`, the Potency is reported as inconclusive [inhibitor, single point].
In the case of `O=c1nc2scc(-c3ccccc3)n2c2ccccc12`, the Potency is reported as “inactive”.
With `Cc1ccc(OCC(=O)Nc2ccc(Cl)c(-c3nc4ccccc4[nH]3)c2)cc1C` the Potency was “inactive”.
With `O=C(Nc1ccc2nc(C3CC3)n(Cc3ccc(F)cc3)c(=O)c2c1)c1ccco1` the Potency was inconclusive [inhibitor, single point].
In the case of `NC(=O)c1cnn2c(-c3cccc(C(F)(F)F)c3)ccnc12`, the Potency is reported as “inactive”.
In the case of `CCn1cc2nc(SCc3ccc(C)cc3)n(CCc3ccccc3)c(=O)c2n1`, the Potency is reported as inconclusive [inhibitor, single point].
With `COC(CNC(=S)Nc1ccc([N+](=O)[O-])cc1)OC` the Potency was “inactive”.
For `CC(=O)N1N=C(c2cccc(O)c2)CC1c1cccs1` (configuration not stated), the Potency was inconclusive [inhibitor, partial curve].
With `O=S(=O)(Nc1ccc(S(=O)(=O)N2CCCC2)cc1)c1ccc(F)cc1F` the Potency was “inactive”.
For `O=C(COc1ccc2ccc(=O)oc2c1)NCCCn1ccnc1`, the Potency was “inactive”.
With `CCN(Cc1ccccc1)C(=O)COC(=O)c1cc(S(=O)(=O)Nc2ccccc2OC)ccc1O` the Potency was inconclusive [inhibitor, single point].
For `O=C(Nc1ccccc1Cl)N1CCn2c(nc3ccccc32)C1`, the activity change, negative = growth inhibition was inconclusive: -31.3% [inhibitor].
In the case of `COCCOc1cnn(-c2cc(Oc3ccc(C)cc3)ncn2)c(=O)c1Cl`, the Potency is reported as “inactive”.
For `O=C(C(=O)N1CCN(C/C=C/c2ccccc2)CC1)c1ccccc1`, the Potency was inconclusive [inhibitor, single point].
With `Cc1ccc(/C=C/C(=O)OC(C)C(=O)Nc2ccc(Cl)cn2)o1` (configuration not stated) the Potency was active: 16.4 µM.
In the case of `CC1(Cc2ccccc2OC(F)(F)F)C(=O)Nc2ccc(-c3ccsc3)cc21` (configuration not stated), the Potency is reported as active: 18.4 µM.
In the case of `O=C(O)CC(c1ccccc1)c1ccc2c(c1)OCO2` (configuration not stated), the Potency is reported as “inactive”.
In the case of `O=C(C[C@@H]1C/C=C\CCCC(=O)OC[C@@H]2CCCN2C1=O)N[C@H](CO)Cc1ccccc1`, the Potency is reported as “inactive”.
In the case of `C[C@H](CO)N1C[C@H](C)[C@@H](CN(C)S(=O)(=O)c2ccccc2)Oc2ccc(NC(=O)Cc3ccccc3)cc2C1=O`, the Potency is reported as inconclusive [inhibitor, single point].
In the case of `CCCc1c(C)c2cccc(C)c2[nH]c1=O`, the Potency is reported as inconclusive [inhibitor, partial curve].
In the case of `CC(C)c1ccc(NC(=O)COc2ccc(F)cc2C(=O)c2cnn(-c3ccccc3)c2)cc1`, the Potency is reported as active: 13 µM.
With `CCOC(=O)N1CCC(NC(=O)C2=CCN(S(=O)(=O)c3ccc(F)cc3)CC2)CC1` the Potency was inconclusive [inhibitor, partial curve, poor fit].
In the case of `COc1ccc(CC(NC(C)=O)C(=O)N2CCN(C(=O)Nc3cccc(Cl)c3)CC2)cc1OC` (configuration not stated), the Potency is reported as “inactive”.
For `CC1Cc2ccccc2N1C(=O)CSc1nc2cc3c(cc2cc1C#N)OCO3` (configuration not stated), the Potency was inconclusive [inhibitor, partial curve].
In the case of `O=c1[nH]cc(C#Cc2ccccc2)c2ncncc12`, the Potency is reported as “inactive”.
With `CCc1ccc(NC(=O)CSc2nc3ccccc3nc2Cc2ccccc2OC)cc1` the Potency was inconclusive [inhibitor, full curve, poor fit].
For `COc1cc(Cc2cnc(N)nc2N)cc(OC)c1OC`, the Potency was inconclusive [inhibitor, single point] and the activity change, negative = growth inhibition was inconclusive: -35.4% [inhibitor].
For `COc1ccc(NC(=O)CSc2nnc(NC(=O)Nc3ccccc3)s2)c(OC)c1`, the Potency was “inactive”.
With `COc1ccc(C[C@H]2CN3C(=NC[C@H]3C)N2CCNC(=O)c2ccc(C)c(Br)c2)cc1` the Potency was active: 5.8 µM.
For `O=C(NC1CCCCC1)c1c[nH]c2ccc(S(=O)(=O)Nc3ccccc3F)cc2c1=O`, the Potency was inconclusive [inhibitor, single point].
In the case of `COc1ccc(C(=O)Nc2nc3ccccc3[nH]2)cc1`, the Potency is reported as active: 23.1 µM.
In the case of `O=C1NC(c2ccc3ccccc3c2)Nc2ccccc21` (configuration not stated), the Potency is reported as active: 6.51 µM.
For `CCOC(=O)c1ccc(NC(=O)c2c(NCc3sccc3C)sc3c2CCCCC3)cc1`, the Potency was active: 20.6 µM.
With `CCOC(=O)C1=C(C)NC(=O)NC1c1c(OCC(=O)N2CCCCC2)ccc2ccccc12` (configuration not stated) the Potency was inconclusive [inhibitor, partial curve].
With `COc1ccc(NC(=O)CCc2nnc3ccc(N4CCC(C)CC4)nn23)cc1OC` the Potency was inconclusive [inhibitor, partial curve].
In the case of `COc1cc(C)c(NC(=O)c2cc(C3CC3)nc3c2cnn3C(C)C)cc1OC`, the Potency is reported as active: 16.4 µM.
With `Cc1n[nH]c(C)c1N1C(=O)c2cccc3c(Br)ccc(c23)C1=O` the Potency was inconclusive [inhibitor, single point].
With `CCOC(=O)c1sc(=S)n(-c2ccccc2Cl)c1C` the Potency was inconclusive [inhibitor, single point].
For `CCOc1ccc(CN(C)C(C)C(=O)NCCc2ccc(F)cc2)cc1` (configuration not stated), the Potency was inconclusive [inhibitor, single point].
In the case of `COc1cc(/C=c2\sc3n(c2=O)C(c2ccccc2)C(c2ccccc2)=NN=3)ccc1O` (configuration not stated), the Potency is reported as active: 14.6 µM.
In the case of `Cc1ccc(NS(=O)(=O)c2cc([N+](=O)[O-])ccc2NNC(=S)Nc2cccc(Cl)c2)c(C)c1`, the Potency is reported as inconclusive [inhibitor, single point].
For `CC(C)C(NC(=O)C1CCC(C(C)(C)C)CC1)C(=O)NCCc1ccc(S(N)(=O)=O)cc1` (configuration not stated), the activity change, negative = growth inhibition was inconclusive: -31.8% [inhibitor].
For `CC(=O)N1CCC2(CC1)CCN(c1cccc(-c3ccccc3)c1)CC2`, the Potency was active: 20.6 µM.
With `COC(=O)c1ccc(Cn2nc(C)cc2C)cc1` the Potency was “inactive”.
In the case of `COc1ccc(C(=O)C2CCCN(C/C=C/c3ccccc3OC)C2)c(OC)c1` (configuration not stated), the Potency is reported as active: 2.59 µM.
In the case of `COc1ccc(Cn2nnnc2C(C(C)C)N(Cc2ccco2)Cc2cccs2)cc1` (configuration not stated), the Potency is reported as inconclusive [inhibitor, single point].
In the case of `Fc1ccc(CNc2ncnc3c2cnn3-c2ccccc2)cc1`, the Potency is reported as inconclusive [inhibitor, partial curve].
With `CC(CCc1ccccc1)NC(=O)/C=C/c1ccccc1` (configuration not stated) the activity change, negative = growth inhibition was inconclusive: -5.93% [inhibitor].
In the case of `CC1CCCN(c2cc3c(cc2F)c(=O)c(S(=O)(=O)c2cccc(Cl)c2)cn3C)C1` (configuration not stated), the Potency is reported as active: 23.1 µM.
For `Cc1n[nH]c(C)c1Cc1c(F)cccc1Cl`, the Potency was inconclusive [inhibitor, single point].
With `c1ccc2c(c1)nc1n2C2(N3CCOCC3)CCCC2C1N1CCOCC1` (configuration not stated) the Potency was “inactive”.
In the case of `O=C1c2ccccc2C(=O)N1c1ccc(O)cc1`, the Potency is reported as “inactive”.
In the case of `CN(c1ccccc1)S(=O)(=O)c1ccc(C(=O)OCC(=O)NCc2cccs2)cc1`, the Potency is reported as inconclusive [inhibitor, single point].
In the case of `COc1ccc(-c2[nH]ncc2CN2CCN(c3ccccn3)CC2)c(OC)c1`, the Potency is reported as “inactive”.
In the case of `COc1ccc([C@H]2CC(=O)C=C(c3ccc(CNC(=O)OC(C)(C)C)cc3)C2)cc1`, the Potency is reported as active: 23.1 µM.
For `Cc1cccc(NC(=S)N/C(=N/S(=O)(=O)c2ccccc2)c2ccccc2)c1`, the Potency was inconclusive [inhibitor, full curve, poor fit].
For `CCCOc1ccc(N2C(=O)CC(N(CCc3ccccc3)C(=O)c3ccccc3)C2=O)cc1` (configuration not stated), the Potency was “inactive”.
With `CCCCCCC(C)n1[nH]c(=O)c2c(C)cc(=O)[nH]c21` (configuration not stated) the Potency was inconclusive [inhibitor, single point].
With `COc1ccc(CCNc2c(C)c(C)nc3ncnn23)cc1` the Potency was active: 2.59 µM.
In the case of `CS(=O)(=O)N(CC(=O)N/N=C/c1cccc2c1OCCO2)c1ccccc1Br`, the Potency is reported as “inactive”.
With `CCOC(=O)c1c(N=CN(C)C)c(C#N)n2c1CCC2` the Potency was inconclusive [inhibitor, single point].
For `Cn1cc(C(=O)NCc2ccc(Cl)cc2)c(=O)c2cc(S(=O)(=O)N3CCCCCC3)ccc21`, the Potency was active: 16.4 µM.
With `CCOc1cccc2sc(=NC(=O)c3ccco3)n(CC(=O)OC)c12` the Potency was active: 14.6 µM.
With `CC(=O)c1sc(NC(=O)c2ccc3c(c2)OCO3)nc1C` the Potency was “inactive”.
In the case of `CC(CCC(=O)NN)C1CCC2C3CCC4CC(O)CCC4(C)C3CCC12C` (configuration not stated), the Potency is reported as active: 25.9 µM.
With `O=C(Nc1ccc(F)c(Cl)c1)c1cc(C2CCCCN2C(=O)c2ccc3c(c2)CCO3)on1` (configuration not stated) the Potency was active: 20.6 µM.
For `CC(N=C1NS(=O)(=O)c2ccccc21)C(=O)NCc1ccncc1` (configuration not stated), the Potency was “inactive”.
In the case of `COC(=O)C1CCN(C(=O)c2cc3c(=O)n4cccc(C)c4nc3n2Cc2ccccc2)CC1`, the Potency is reported as inconclusive [inhibitor, partial curve].
In the case of `Cn1c(=O)c2[nH]c(C(O)c3ccc(Cl)cc3)nc2n(C)c1=O` (configuration not stated), the Potency is reported as inconclusive [inhibitor, partial curve].
For `O=C1NC[C@@H](CCCCN2C[C@H](Cc3ccccc3)N(CC3CCCCC3)C(=O)C2=O)N(CC2CCCCC2)C1=O`, the Potency was “inactive”.
